This note sets out measurements from the supplement of paper PMC11417369.

Some of the results follow.

For this assay, the system named is PfHDP1 homeodomain (GST-tagged). The assay is described as follows: gcPBM binding intensity (ln(normalized median fluorescence intensity)); higher = stronger DNA binding. The gist of the method:
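DNA-binding domains from P. falciparum, fused to GST and produced in E. coli, were put on an Agilent 4 × 180k double-stranded probe array for 1 h in 1× PBS holding 1% milk, 0.2 mg/ml BSA, 0.5% salmon testes DNA and 0.03% Triton X-100. Probes were primer-extended, 36 bp long and drawn from intergenic genomic regions, with negative controls included. After Alexa488 anti-GST antibody detection and a 488 nm scan, binding intensity was set as the highest Masliner-normalised natural-log median intensity across replicate spots of either probe orientation.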
For the sequence “AAGAAGAAACGGAAAAGTACAAAGAAGAAATAAGTA [XGTACX_site3680]”, the “gcPBM binding intensity (ln)” value stood at 6.93.

As to “GAGGATGCCTATGGCACACATTATAAAACTGTCGCT [CACACA_site4322]”, the “gcPBM binding intensity (ln)” value is 5.87.

In the case of “ATGTTTTTAATTTATTGTACATTAATTTGTATTATT [XGTACX_site253]”, the “gcPBM binding intensity (ln)” value came to 6.9.

On to “TTTTCTTTTCTCTTCTTTTTCTCCCATTATTAATCT [XGTACX_negctrl_site406]”, for which the “gcPBM binding intensity (ln)” value worked out at 6.36.

As to “TTTTTATTATTTAAATGTACATATAAATATATATAT [XGTACX_site6870]”, the “gcPBM binding intensity (ln)” value worked out at 7.71.

Turning to “ATTTCATTTATAAGGATATCTACTTTTTATTTTAAT [GTGCAC_negctrl_site59]”, the “gcPBM binding intensity (ln)” value came to 6.31.

With “TCTATCTTTTCCAAACGTACATTTTTTATATAAATT [XGTACX_site5352]”, the “gcPBM binding intensity (ln)” value worked out at 7.15.

With “AAACGAAAAAAATGGTGTACATTAAAATGAAAATTG [XGTACX_site7040]”, the “gcPBM binding intensity (ln)” value was 6.54.

On to ATATATATCTTTTGTGTGCACATATATATAATATAT, for which the “gcPBM binding intensity (ln)” value was found to be 10.9.

“AAAAAAAAAATATACACACACACATACACATAAATA [CACACA_site3808]”: the “gcPBM binding intensity (ln)” value was found to be 7.11.

As for “TTATATTCTATTTATTGTACTTAAATATATATATAT [XGTACX_site6400]”, the “gcPBM binding intensity (ln)” value came to 8.82.

For “TATATATCGCATAAAACACACAAAAAAAAAATTAAA [CACACA_site7767]”, the “gcPBM binding intensity (ln)” value came to 6.6.

As to “TATTTTCCCTCCATATGTACTTAATTATAAGCACAT [XGTACX_site4000]”, the “gcPBM binding intensity (ln)” value is 6.62.

For “TTTATGTAAAAATATAGTACATATTAAAAGATAAGA [XGTACX_site8134]”, the “gcPBM binding intensity (ln)” value was 6.59.

For the sequence “ATATATTCCATAAAGGTGCTGTTAACGTGTCAACGT [GTGCAC_site9402]”, the “gcPBM binding intensity (ln)” value came out at 6.26.

As to “TAAGTATACACATACACACACACACTAAAAAAAAAA [CACACA_site6337]”, the “gcPBM binding intensity (ln)” value came to 6.95.

Turning to “ATAAAATACATATAAACACACATATAAACCGACATA [CACACA_site2477]”, the “gcPBM binding intensity (ln)” value came to 6.86.

For “TAAACATAAATATGCACACATATACAGATATTCATA [CACACA_site5471]”, the “gcPBM binding intensity (ln)” value came out at 9.87.

For the sequence “TTTTACTTAAGACACACACACACAAAAAAAAAAAAA [CACACA_site6573]”, the “gcPBM binding intensity (ln)” value came out at 6.43.

For the sequence “AGTTTTTACTCTAATGGTACAGTGCAACTAATAAAT [XGTACX_site6950]”, the “gcPBM binding intensity (ln)” value worked out at 8.68.

In the case of “TTTTTTTTCCTAATGTGTACTAAAAATGAACAATAA [XGTACX_site5248]”, the “gcPBM binding intensity (ln)” value turned out to be 6.66.

Regarding “AAAAAAAAGAAACACACACACATACACATAAATATA [CACACA_site3807]”, the “gcPBM binding intensity (ln)” value was 6.9.

Regarding “ATATTTTTTTCATAGACACACACAATATATCTGTTT [CACACA_site8993]”, the “gcPBM binding intensity (ln)” value was found to be 6.71.

With “AACATTATTTTGTGTACACATTCGGTTATATTATAT [CACACA_site5628]”, the “gcPBM binding intensity (ln)” value was 8.28.

For “ACTTTATTTTCCTGTACACACATTTGACATATTAAA [CACACA_site3378]”, the “gcPBM binding intensity (ln)” value worked out at 7.77.
